# About 1,200 (2.5%) of roughly 48,000 compounds were called active. Another 2% or so got no clear call; they are omitted.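 The calls were made as follows: active = activation of at least 60% and not above a set upper limit (about 1 call in 100 departs from these limits); inconclusive = activation of 40% to 60%, or above that upper limit; inactive = activation under 40%.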 Some of the results follow.
# Target: Probable G-protein coupled receptor 32 (Homo sapiens) (UniProt O75388)
# Experiment: qHTS for Agonists of Human Resolvin D1 Receptor DRV1; also: 0% is about no effect
# Conditions: CHO-K1 GPR32 beta-arrestin PathHunter luminescence, 90 min; at 76.9 µM; active compounds read high; zero percent set by DMSO-only wells
# In short: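 GPR32 activation in stably transfected CHO-K1 cells, detected as beta-arrestin recruitment by enzyme-fragment complementation. Compound exposure: 90 min, 37 °C.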
# Chain of UniProt O75388 (O75388 whole entry, looked up): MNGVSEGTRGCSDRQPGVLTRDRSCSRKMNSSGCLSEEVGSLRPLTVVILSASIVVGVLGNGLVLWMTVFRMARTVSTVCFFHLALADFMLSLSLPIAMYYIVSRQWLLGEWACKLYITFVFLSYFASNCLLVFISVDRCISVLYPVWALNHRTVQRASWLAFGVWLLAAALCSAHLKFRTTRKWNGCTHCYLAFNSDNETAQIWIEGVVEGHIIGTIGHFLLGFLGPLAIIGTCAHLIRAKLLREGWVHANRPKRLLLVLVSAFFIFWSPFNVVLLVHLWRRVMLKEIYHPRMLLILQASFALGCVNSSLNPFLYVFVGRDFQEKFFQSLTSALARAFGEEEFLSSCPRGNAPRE
row,Compound,activation
1,COc1ccccc1C1c2c(-c3ccc(Cl)cc3)n[nH]c2C(=O)N1c1ccc(C)cc1 (stereo not given),inactive: -20.7%
2,CCN1CCN(Cc2c(O)ccc3c(C)c(-c4ccc(OC)cc4)c(=O)oc23)CC1,inactive: -12.3%
3,Cc1ccccc1C(=O)Nc1cccc(OCc2cc(=O)n3c(C)csc3n2)c1,inactive: -0.198%
4,CCN(CC)CCOC(=O)c1ccc(NC(=O)c2cc3c(=O)n(CC)c4ccccc4c3s2)cc1,inactive: -1.29%
5,Cc1cc(SCC(=O)NCc2ccc(Cl)cc2)nc(=O)[nH]1,inactive: 3.6%
6,CCCCCn1c(=O)[nH]c2cc(C(=O)Nc3ccc(F)c(F)c3)ccc2c1=O,inactive: 9.81%
7,N#Cc1ccc(-c2cccs2)nc1SCC(=O)Nc1cccc(C(F)(F)F)c1,active: 82.3%
8,Cc1ccccc1S(=O)(=O)Cc1ccc(C(=O)N2CCN(c3cccc(Cl)c3)CC2)o1,inactive: 22.4%
9,COc1ccc(NC(=O)C2=CC(c3ccco3)=NS(=O)(=O)N2C)cc1,inactive: -24%
10,COc1ccccc1N1CCN(c2ncnc3c2nnn3C)CC1,inactive: -0.452%
11,Cc1ccc(C)c(NC(=O)CN2CCSc3ccc(S(=O)(=O)N4CCCC4)cc32)c1,inactive: 8.72%
12,CCOC(=O)c1oc2ccc(S(=O)(=O)n3nc(-c4ccc(C)cc4)cc3N)cc2c1C,inactive: -0.858%
13,COc1ccc(NC(=O)C2CCN(S(=O)(=O)c3cccc(-c4noc(C)n4)c3)CC2)cc1OC,inactive: 17.4%
14,CC(C)c1ccc(S(=O)(=O)N2CCC(n3c(C(F)(F)F)nc4cccnc43)CC2)cc1,inactive: -1.51%
15,CC(C)c1ccc(CN(C(=O)c2cc3ccccc3oc2=O)C2CCS(=O)(=O)C2)cc1 (stereo not given),inactive: -13%
16,CCOCCn1ccc2c(OCC(=O)Nc3ccc(C(N)=O)cc3)cccc2c1=O,inactive: 11.1%
17,COc1ccc(C2NC(=O)N(C)C3=C2C(=O)N(c2ccc(Br)cc2)C3)cc1 (stereo not given),inactive: -17.2%
18,CC(NC(=O)C1CCN(S(=O)(=O)Cc2ccccc2)CC1)c1ccccc1 (stereo not given),inactive: -4.01%
19,COc1cccc2sc(N(Cc3cccnc3)C(=O)c3ccc4c(c3)OCCO4)nc12,inactive: -17%
20,COC(=O)c1cc2occc2n1Cc1nc(-c2ccccc2)oc1C,inactive: -25.3%
21,Cc1cc(S(=O)(=O)N2CCN(Cc3noc(CCC(=O)N4CCCCC4)n3)CC2)ccc1F,inactive: -11%
22,CCCc1nn2c(=O)cc(COC(=O)c3ccc(NC(=O)COc4ccc(F)cc4)cc3)nc2s1,inactive: -12.3%

row,Compound,activation
1,CN(C)c1ccc(CNC(=O)C2CCN(c3nc4ccccc4[nH]3)CC2)cc1,inactive: -4.49%
2,COC(=O)c1c(NC(=O)c2ccc(S(=O)(=O)N3CCC(C)CC3)cc2)sc2c1CCN(C)C2,inactive: -34.3%
3,Cc1ccccc1CNC(=O)c1cnc2sc(N3CCC(C)CC3)nn2c1=O,inactive: 4.16%
4,COc1cc2ccccc2cc1C(=O)Nc1cccc(-c2nc3cc(C)c(C)cc3o2)c1,inactive: -2.01%
5,CN(C(=O)CSc1nnc(NC(=O)Nc2ccccc2)s1)c1ccccc1,inactive: -7.36%
6,Cc1cc(C)c(NC(=O)C2CCN(c3nc4ccccc4n4cccc34)CC2)c(C)c1,inactive: -30.9%
7,Brc1cccc(-c2nnn3c2nc(NCc2ccc4c(c2)OCO4)c2ccccc23)c1,inactive: -1.46%
8,COc1ccc(-n2ncc(C(=O)NCc3ccco3)c2C2CCN(C(=O)OC(C)(C)C)CC2)cc1,inactive: -13.3%
9,CC(C)NC(=O)C1CCC(Cn2c(=O)c3sccc3n(Cc3ccc(F)cc3)c2=O)CC1 (stereo not given),inactive: 3.38%
10,O=C(NCC(c1cccnc1)N1CCc2ccccc21)c1cccc(Br)c1 (stereo not given),inactive: -24.9%
11,COC(=O)c1c(-c2ccc(Cl)cc2)noc1N1CCN(c2cc(C)ccc2C)CC1,inactive: 0.0072%
12,COc1cccc(NC(=O)C2CCCN(S(=O)(=O)c3cn(C(C)C)cn3)C2)c1 (stereo not given),inactive: 0.451%
13,CCOc1ccc(CCNC(=O)c2cc3cccc4c3n2CCS4)cc1,inactive: -11.1%
14,Cc1ccc(NC(=O)/C(C#N)=C/c2ccc(-c3ccc(Cl)c(C(=O)O)c3)o2)cc1C,inactive: -2.85%
15,CCOc1cccc(NC(=O)C2CC(=O)N(CC)C(=Nc3ccc(F)cc3)S2)c1 (stereo not given),active: 80.5%
16,O=C1CS(=O)(=O)C2(C(=O)N(Cc3ccccc3Cl)c3ccccc32)N1c1ccc(F)cc1 (stereo not given),inactive: -6.4%
17,COc1ccc(Cn2c(C(=O)O)c(CNCCc3ccco3)c3ccc(OC)cc32)cc1,inactive: 0.931%
18,CC(C)(C)c1ccc(/C=C/C(=O)Nc2ccc(S(N)(=O)=O)cc2)cc1,active: 94.2%
19,CCCNC(=O)Cn1c(=O)n(CC2CCC(C(=O)NC)CC2)c(=O)c2sccc21 (stereo not given),inactive: 5.4%
20,CCN(CC)S(=O)(=O)c1ccc2c(c1)N(CC(=O)Nc1ccccc1F)C(=O)C1CCCN21 (stereo not given),inactive: -35.8%
21,CCCC(=O)N(c1ccc2oc(C)c(C(C)=O)c2c1)S(=O)(=O)c1ccc(CC)cc1,inactive: 3.43%
22,NCCNCCNCCNCCN,inactive: 13.2%

row,Compound,activation
1,COc1ccc(N2CCN(c3ncnc4c3cnn4C)CC2)cc1,inactive: 10.4%
2,Cc1cccc(C(=O)Nc2ccc(S(=O)(=O)N3CCC(c4nc5ccccc5s4)CC3)cc2)c1,inactive: 3.97%
3,CCC(C)(C)NC(=O)C1CCN(S(=O)(=O)c2ccc3c(c2)CCCN3C(C)=O)CC1,inactive: -6.07%
4,C=Cc1ccc(Cn2c(C(=O)O)c(CNCc3ccc(F)cc3)c3ccc(C)cc32)cc1,active: 90.9%
5,Cc1cc(C)c(NC(=O)CSc2ncc3c(n2)-c2cc(Cl)ccc2N(C)S3(=O)=O)c(C)c1,inactive: -7.42%
6,COCCCNC(=O)c1cc2cc(S(=O)(=O)N3CCCCC3)ccc2n1C,inactive: -3.36%
7,COc1ccc(C2c3cc(OC)c(OC)cc3CC(=O)N2c2ccc(C)cc2)cc1 (stereo not given),inactive: -5.93%
8,CCCC(=O)Nc1nnc(S(=O)(=O)N(C)Cc2ccc(Cl)cc2)s1,inactive: -10.6%
9,Cc1cccc(Cn2c(=O)n3nc(-c4ccccc4)nc3c3ccccc32)c1,inactive: -7.65%
10,CC(C)c1ccc(S(=O)(=O)c2nnn3c2nc(N2CCCC2)c2sccc23)cc1,inactive: 0.41%
11,CCC(C)c1ccc2oc(-c3ccc(NC(=O)c4cc5ccccc5o4)cc3)nc2c1 (stereo not given),inactive: -0.177%
12,COc1ccccc1Nc1nc(-c2ccccc2F)nc2ccccc12,inactive: -17.1%
13,Cc1cccc(-c2nn3c(=O)cc(CN4CCN(C(=O)/C=C/c5ccccc5)CC4)nc3s2)c1,inactive: -1.7%
14,Cn1c(=O)[nH]c2cc(-c3noc(-c4ccc(Br)cc4)n3)ccc21,inactive: -9.22%
15,COc1cc2c(C(=O)Nc3cc(OC)c(OC)c(OC)c3)cn(C)c(=O)c2cc1OC,inactive: 14.9%
16,O=C(CC1N=C2c3ccccc3N=C(SCc3ccc(F)cc3)N2C1=O)NCc1ccc2c(c1)OCO2 (stereo not given),inactive: -10.8%
17,O=C(NCCN1CCN(c2cccc(Cl)c2)CC1)Nc1ccccc1,inactive: 39.7%
18,CCc1ccc(NC(=O)c2ccc(-c3ccccc3)s2)cc1,inactive: -4.22%
19,Cc1ccc(NC(=O)CSc2nnc3ccc4ccccc4n23)cc1,inactive: -5.11%
20,Cc1cccc(C(=O)NCC(c2ccco2)S(=O)(=O)c2cccs2)c1 (stereo not given),inactive: -4.25%
21,CCOC(=O)C1CCN(c2ncnc3c2nc2n3CCCCC2)CC1,inactive: 33.1%
22,CCc1ccc(NC(=O)c2cnn(-c3ccccc3)c2-n2cccc2)cc1,inactive: 15%

row,Compound,activation
1,CCC(Oc1ccccc1)C(=O)Nc1nnc(S(=O)(=O)N(CC)CC)s1 (stereo not given),inactive: -5.55%
2,CCc1cnc2c(c1SCC(=O)NCc1ccccc1Cl)c(=O)n(C)c(=O)n2C,inactive: -4.87%
3,Cc1cccc(NC(=O)c2ccc(-c3ccccc3)s2)c1,inactive: -9.35%
4,COc1ccc(OC)c(C(C)NC(=O)Cn2c(=O)cc(C)c3c(C)nn(-c4ccc(C)cc4)c32)c1 (stereo not given),inactive: -20.5%
5,Nc1c(-c2nc(-c3cccs3)no2)nnn1-c1cccc(Cl)c1,inactive: 5.11%
6,CCCCC(=O)Nc1ccc2nc(SCC(=O)N3CCCC3)sc2c1,inactive: -15.5%
7,Cc1ccc(C)c(N2CCN(Cc3csc(C)c3C)CC2)c1,inactive: 18.4%
8,COc1ccccc1-c1cc(C(=O)N2CCCCC2C)no1 (stereo not given),inactive: -18.7%
9,CCc1ccc(Nc2ncnc3c2cnn3-c2cc(Cl)ccc2C)cc1,inactive: 34.7%
10,CCOc1ccccc1CC1C(=O)Nc2ccc(Br)cc21 (stereo not given),active: 73%
11,COc1cccc(CNC(=O)C(NS(=O)(=O)c2ccc3c(c2)CCN3C(C)=O)C(C)C)c1 (stereo not given),inactive: 6.36%
12,Cc1cccc(-c2nc(Cn3c(=O)cc(-c4ccccc4)c4c(C)nn(C)c43)c(C)o2)c1,inactive: -2.15%
13,CCn1cc(C(=O)OCC(=O)Nc2ccc(F)cc2F)c(=O)c2ccc(C)nc21,inactive: -5.31%
14,COC(=O)c1ccc(Cn2c(=O)cc(C(F)(F)F)c3c(C)nn(C)c32)cc1,inactive: 13.1%
15,CCCn1c2ccccc2c2cnn(CC(=O)NCCc3ccccc3)c(=O)c21,inactive: 44.2%
16,O=C(Cn1c2ncccc2c(=O)n1-c1ccccc1)Nc1ccc(F)c(F)c1,inactive: -8.31%
17,O=C(NCc1ccc(Cl)cc1)C1CCCN(c2nc3ccccc3n3cccc23)C1 (stereo not given),inactive: -36.4%
18,CCN(c1ccc(OC)cc1)S(=O)(=O)c1ccc2[nH]c(=O)ccc2c1,inactive: -10.1%
19,CCOc1ccc(S(=O)(=O)N(CC(=O)NCCSc2ccccc2)c2ccccc2)cc1,inactive: 3.5%
